Laboratory results from PubChem BioAssay AID1347043 (National Center for Advancing Translational Sciences (NCATS), 2019).
Out of some 76,000 compounds screened, about 1,900 (2.5%) were called active. Inconclusive means that the source gave no clear call. Such entries were picked first, then a sample of the others. The call rests on the fitted dose curve; in most records, active means well fitted inhibition curve with a large enough effect; inconclusive means small, poorly fitted or top-dose-only effect; inactive means flat fitted curve, though single readings scatter. Where the call is inconclusive, the potency comes from a doubtful curve fit.

target: Luciferin 4-monooxygenase (Photinus pyralis) (UniProt P08659); experiment: Firefly luciferase inhibition profiling of diverse chemical library using quantitative high-throughput screening; further: nearly all actives have a fitted effect of over 65% in size; conditions: purified P. pyralis luciferase, luminescence, biochemical; series mostly up to 115 µM
UniProt P08659, sequence (P08659 whole entry, looked up): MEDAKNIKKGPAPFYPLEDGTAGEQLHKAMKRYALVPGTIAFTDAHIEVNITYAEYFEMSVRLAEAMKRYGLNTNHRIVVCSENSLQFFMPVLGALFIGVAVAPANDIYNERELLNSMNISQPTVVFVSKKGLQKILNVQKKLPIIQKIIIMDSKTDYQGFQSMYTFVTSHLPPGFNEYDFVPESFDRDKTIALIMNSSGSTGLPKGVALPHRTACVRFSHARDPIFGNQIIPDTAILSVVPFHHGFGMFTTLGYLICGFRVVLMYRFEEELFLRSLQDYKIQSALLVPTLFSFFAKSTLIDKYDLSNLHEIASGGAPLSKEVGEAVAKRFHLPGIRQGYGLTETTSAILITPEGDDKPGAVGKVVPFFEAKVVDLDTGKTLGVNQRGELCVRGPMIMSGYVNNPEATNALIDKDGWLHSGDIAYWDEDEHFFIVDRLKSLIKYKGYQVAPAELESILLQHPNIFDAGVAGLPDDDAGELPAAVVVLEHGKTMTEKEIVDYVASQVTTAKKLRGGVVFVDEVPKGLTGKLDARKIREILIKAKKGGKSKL
Outline: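 FLuc 10nM, D-luciferin 10uM, ATP 10uM, Mg acetate 10mM, Tris acetate pH 7.5, Tween/BSA; cpd qHTS; enzyme added last; CCD luminescence.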
Potency means the concentration at half of the fitted maximal effect; tags describe the fitted curve by direction and shape.

| SMILES | Potency |
| --- | --- |
| COc1ccc(NC(=O)CC2CCOCC2)cc1 | inconclusive: 39.8 µM [inhibitor, partial curve, poor fit] |
| CC(=O)N1CCN(C(=O)c2c(C)oc3c2CN(Cc2ccc(F)cc2)CC3)CC1 | inconclusive: 44.7 µM [inhibitor, partial curve] |
| CC(=O)N1CCN([C@H]2[C@@H]3OC[C@@H](O3)[C@@H](NCc3ccco3)[C@@H]2O)CC1 | inactive |
| O=C(Nc1ccc(F)cc1)c1ccn2nccc2c1 | active: 50.1 µM |
| COc1cccc(Nc2ccc3c(n2)C(C)(C(=O)NCC2CC2)CN(C)C3)c1 (centres undefined) | inconclusive: 112 µM [inhibitor, partial curve] |
| CCOC(=O)C1(Cc2ccccc2C)CCCN(C(=O)c2csc(C)n2)C1 (centres undefined) | active: 39.8 µM |
| O=C(CCC1CCN(C(=O)c2ccccc2)CC1)N1CCOCC1 | inconclusive: 39.8 µM [inhibitor, partial curve] |
| COc1ccc(N2Cc3c(ncnc3N3CCC(Cc4ccccc4)CC3)N(C)CC2=O)cc1 | inactive |
| CC1(C(=O)N2C[C@@H](Oc3ccccc3)C[C@H]2C(=O)N2CCOCC2)CCCCC1 | inactive |
| CC(=O)Nc1cccc(-c2ccc3c(n2)CN(Cc2nc4ccccc4s2)C(=O)CO3)c1 | inconclusive: 50.1 µM [inhibitor, partial curve] |
| FC(F)(F)c1cccc(-c2noc(-c3ccc(NCCN4CCOCC4)nc3)n2)c1 | inconclusive: 44.7 µM [inhibitor, partial curve] |
| COc1nccnc1NC1CCN(C(=O)c2cnccn2)CC1 | inactive |
| COc1cccc(-c2cn3c(n2)N(C(=O)C2CCCO2)CCC3)c1 (centres undefined) | inconclusive: 50.1 µM [inhibitor, partial curve] |
| COc1ccc(CN2CCOc3nc(-c4cc(F)cc(OC)c4)ncc3C2=O)cc1 | active: 28.2 µM |
| Cc1ccc(C2=NC3(CCN(C(=O)c4cccc(C#N)c4)CC3)ON2)cc1 | inconclusive: 50.1 µM [inhibitor, partial curve] |
| FC(F)(F)c1ccc(-c2noc([C@@H]3Cc4nc[nH]c4CN3Cc3cc4ccccc4o3)n2)cc1 | inconclusive: 50.1 µM [inhibitor, partial curve] |
| Cc1ccc(NC(=O)Cn2ccn3nc(-c4ccccc4)c(CO)c3c2=O)cc1Cl | inactive |
| COc1ccc(-c2cccc(COc3ccc4c(cnn4CC[S+](C)(=O)[O-])c3)c2)cc1 | inconclusive: 14.1 µM [inhibitor, partial curve] |
| Cn1c(-c2ccc(CN3CCc4[nH]cnc4C3C(=O)O)o2)nc2ccccc21 (centres undefined) | inconclusive: 39.8 µM [inhibitor, partial curve] |
